Results on 60 compounds are retold here after the supplement of paper PMC4723716.

Each structure is given as a SMILES string. Over roughly 3,600 compounds, “viability index relative to DMSO control” has its median near 0.81; the lowest 2% begin near 0.13. Some of the results follow.
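Also: 384-well serum-free SaLSSA: MitoTracker Red CMXRos staining with saponin lysis, high-content imaging, treated-well particle count divided by plate-mean count of DMSO wells.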

The assay concerns Plasmodium falciparum NF54 stage V gametocytes. Put plainly: viability index relative to DMSO control (fraction); higher = less gametocyte killing. As to conditions: 1.25 µM, incubation time: 72 h.
In turn, `O=C(NN=Cc1ccc(O)cc1O)c1ccncc1` had a viability index of 0.931.
Next, `COc1cc(Br)c(CCNC(=O)Cc2cc(OC)c(OC)cc2Br)cc1OC`: 0.805.
`CC1CCCCN1CC(=O)N1CCN(C(=O)CN2CCCCC2C)CC1` (stereo not given) returned a viability index of 1.03.
For the compound `CC(=O)N(C1=C(N2CCCC2)C(=O)c2ccccc2C1=O)c1ccc(F)cc1`, the viability index came to 1.
The figure for `O=C(NN=Cc1ccncc1)c1cc(-c2cccc([N+](=O)[O-])c2)n[nH]1` is 0.734.
In turn, `O=S(=O)(Oc1ccc2ccccc2c1Cc1c(OS(=O)(=O)c2ccccc2)ccc2ccccc12)c1ccccc1` displayed a viability index of 0.682.
`N=c1n(CCN2CCCCC2)c2ccccc2n1CC(O)c1ccc(Cl)c(Cl)c1` (stereo not given) came in with a viability index of 0.506.
For `CCN1CCN(c2cc(C)c3cc(NC(=O)C=Cc4ccc(OC)cc4)ccc3n2)CC1`, the viability index came out at 0.767.
Next, `CCCc1c(CC)c(=N)c2ccccc2n1C`: 0.785; `CN(C)c1ccc(C2N(C)c3ccccc3N2C)cc1`: 0.764.
Next, `O=C1C(=O)N(Cc2ccccc2[N+](=O)[O-])c2ccccc21`: 0.74; `Cc1cc(Cl)c(S(=O)(=O)N2CCCC2)cc1OCC(=O)NC1CCCCC1`: 1.02.
`CCOC(=O)CCS(=O)(=O)c1ccc(Br)cc1`: the viability index amounted to 0.875.
For `COc1ccc(C(=O)C[n+]2ccc3c(c2)nc(-c2ccc(OC)cc2OC)n3C)cc1`, the viability index is 0.864.
Turning to `CCCCN1Cc2ccc(C(=O)NCCN3CCOCC3)cc2N=C1c1ccc(OC)cc1`, the viability index was found to be 0.708.
Next, `Cc1ccc(Sc2c(C)nn(C(=O)c3cccnc3)c2C)cc1`: 1.1; `CCCc1cc2c(=O)c(-c3ccc4c(c3)OCO4)c(CC)oc2cc1OC(C)C`: 0.521; `Cc1ccc(-c2cc(N3CCCC3CO)n3nccc3n2)cc1` (stereo not given): 0.685.
`CCOC(=O)c1c(NC(=O)CSc2nc3c(c(=O)n(C)c(=O)n3C)n2C(C)C)sc2c1CCCC2` came in with a viability index of 0.735.
Next, `COc1ccc(-n2c(CNc3cc(C(F)(F)F)ccc3Cl)nnc2SCc2ccccc2Cl)cc1`: 0.696; `CC(CN1CCC(n2cc(C(=O)N3CCCC3)nn2)CC1)c1ccccc1` (stereo not given): 0.976; `COCCN1C(=O)C(O)=C(C(=O)c2ccccc2)C1c1ccccc1[N+](=O)[O-]` (stereo not given): 0.792.
The figure for `Cc1ccccc1CSc1ccc(-c2cccs2)nn1` is 0.827; for `COc1cc(-c2nc3ccc(N4CCN(C)CC4)cc3[nH]2)cc(OC)c1OC` it is 0.939; for `O=c1nc(C=Cc2ccc(Cl)cc2)oc2ccccc12` it is 0.735.
The figure for `CC(=C(Cl)Cl)C(Br)=C(Br)CO` is 0.892; for `COc1cc(OC)c(N(C)C(=O)c2cc3c(s2)-c2ccccc2S(=O)(=O)C3)cc1Cl` it is 0.286; for `C=CCc1cccc(C=NNc2nc3ccccc3[nH]2)c1O` it is 0.885.
In turn, `CCC1CCCCN1CCCNC(=O)c1cn(CC)c(=O)c2cc(OC)c(OC)cc12` (stereo not given) had a viability index of 0.871.
Next, `COC(=O)c1cn([C@@H]2C[C@@H](C(=O)NCc3cccc(C(F)(F)F)c3)N(C3CCN(Cc4ccccc4)CC3)C2)nn1`: 0.692.
In turn, `COc1ccc(C2CC(=O)C3=C(C2)NC(C)=C(C(=O)OC(C)C)C3c2cccc(Br)c2)cc1OC` (stereo not given) registered a viability index of 0.958.
Next, `Cc1cccn2c(NCc3ccccc3)c(-c3ccccc3OC(=O)C(C)Cl)nc12` (stereo not given): 0.643.
Compound `Cc1oc(-c2cccs2)nc1CN1CCC(CO)(CCOc2ccccc2)CC1` had a viability index of 1.06.
The compound `O=C(Oc1ccc(-c2ccc(OC(=O)c3ccco3)cc2)cc1)c1ccco1` had a viability index of 0.907.
Take `CCOc1ccc2nc(C)cc(Nc3ccc(N(C)C)cc3)c2c1`: the viability index came to 0.896.
`CC1CC(C)CN(C(=O)c2sc3ccccc3c2Cl)C1` (stereo not given) gave a viability index of 0.769.
Compound `O=C(Nc1ccc2nc3n(c(=O)c2c1)CCCCC3)C(=O)N1CCN(c2ccccc2)CC1` yielded a viability index of 0.423.
Next, `COc1cc2ncnc(NC3CCN(Cc4ccccc4)CC3)c2cc1OC`: 0.734; `Clc1ccc(OCc2nc3ccccc3n2CCc2ccccc2)cc1`: 0.707; `C[n+]1oc(C=Cc2ccccc2)cc1C=Cc1ccccc1`: 0.43.
Next, `CCOC(=O)C1=C(C)NC2=C(C(=O)CC(c3ccccc3)C2)C1c1ccccc1Cl` (stereo not given): 1.14; `CCOC(=O)c1c(Cl)nnc(-c2ccccc2)c1-c1ccccc1`: 0.
The figure for `CC(=O)c1ccc(N2CCN(Cc3cc(-c4ccnc5cc(Cl)ccc45)ccc3O)CC2)cc1` is 0.433; for `CC(C)CCNCC(O)Cn1c2ccccc2c2ccccc21` (stereo not given) it is 0.683; for `COc1ccc2cc(C(C)=NO)ccc2c1` it is 1.38.
The compound `Cc1ccc(C2CC3=Nc4ccccc4N(C(=O)C(F)(F)F)C(c4ccc(OCc5ccccc5)cc4)C3=C(O)C2)cc1` (stereo not given) registered a viability index of 0.859.
Take `CCCCn1c(=N)n(CC(O)c2ccc(Br)cc2)c2ccccc21` (stereo not given): the viability index came to 0.634.
For the compound `CCOc1ccc2cc(C#N)c(SCC(=O)N3CC(=O)Nc4ccccc43)nc2c1`, the viability index was 0.746.
Consider `O=S(=O)(c1ccc(Br)s1)N1CCN(c2ccccc2)CC1`, for which the viability index turned out to be 0.805.
Next, `CCCCc1c(C)nc2ccc(Br)cc2c1O`: 0.692; `Nc1ccc(-c2cc(N)n(-c3ccc(Oc4ccccc4)c(S(=O)(=O)O)c3)n2)cc1`: 0.829.
Next, `CC(C)(C)NCC(O)Cn1c2ccc(Cl)cc2c2cc(Cl)ccc21` (stereo not given): 0.398; `CCCCCOc1ccc(/C=C2/N=C(c3ccccc3)OC2=O)cc1`: 0.837.
The compound `O=C1CC(c2ccc([N+](=O)[O-])cc2)C2=C(CC(c3ccc(F)cc3)CC2=O)N1` (stereo not given) returned a viability index of 0.51.
Next, `CN(C)c1ccc(NC(=O)C2C3C=CC(O3)C2C(=O)O)cc1` (stereo not given): 0.812; `CC1CCN(c2ncnc3sc4c(c23)CCC(C)C4)CC1` (stereo not given): 0.892.
Compound `CN(C=Cc1sc2ccc3ccccc3c2[n+]1C)c1ccccc1` returned a viability index of 0.527.
The figure for `COc1ccc(-n2nc(C(=O)NCc3ccccc3OC)c3ccccc3c2=O)cc1` is 0.664; for `Cc1ccc(C=NNc2ncnc3[nH]cnc23)cc1` it is 0.529.
Next, `CCOC(=O)c1c[nH]c2c(CC)cccc2c1=O`: 0.783.
